Data from the supplement of paper PMC8047034.
Where a name gives a salt, the structure may show the parent alone. The list shows a part of the results. Repeats are few or missing, and single values can be far off.

Test system: Ov4Carbo
Assay: log2 surviving fraction (library drug vs vehicle, or drug + carboplatin vs carboplatin alone; relative to plate median); ovarian cancer lines: OVCAR4 is platinum-sensitive and Ov4Carbo platinum-resistant; higher = more cell survival
Settings: library drug concentration 10 µM; 7 days; carboplatin co-treatment 0 µM

Row | Structure (SMILES) | log2 surviving fraction
1 | CCCSc1nc(N[C@@H]2C[C@H]2c2ccc(F)c(F)c2)c2nnn([C@@H]3C[C@H](OCCO)[C@@H](O)[C@H]3O)c2n1 [Ticagrelor] | -2.14
2 | Cn1ccnc1S [Methimazole (Tapazole, Northyx)] | 0.00306
3 | C=C1CC[C@H](O)C/C1=C/C=C1\CCC[C@]2(C)[C@@H]([C@H](C)CCCC(C)C)CC[C@@H]12 [Vitamin D3 (Cholecalciferol)] | -0.657
4 | CCn1nc(C(=O)O)c(=O)c2cc3c(cc21)OCO3 [Cinoxacin] | -0.637
5 | Nc1nc2[nH]cnc2c(=S)[nH]1 [Thioguanine] | -6.39
6 | O=C(O)c1cn(-c2ccc(F)cc2)c2cc(N3CCNCC3)c(F)cc2c1=O [Sarafloxacin HCl] | 1.29
7 | N#CC[C@H](C1CCCC1)n1cc(-c2ncnc3[nH]ccc23)cn1 | 0.558
8 | O=C(O)c1cc(=O)c2c(OCC(O)COc3cccc4oc(C(=O)O)cc(=O)c34)cccc2o1 [Disodium Cromoglycate] | 0.636
9 | Nc1ncnc2c1ncn2[C@@H]1O[C@H](CO)[C@@H](O)[C@H]1O [Adenosine (Adenocard)] | 1.13
10 | COC1=C(OC)C(=O)C(CCCCCCCCCCO)=C(C)C1=O [Idebenone] | -0.412
11 | N[C@@H]1CONC1=O [D-Cycloserine] | 0.909
12 | Cc1cc2c(s1)Nc1ccccc1N=C2N1CCN(C)CC1 [Olanzapine (Zyprexa)] | 0.256
13 | O=C1Cc2cc(CCN3CCN(c4nsc5ccccc45)CC3)c(Cl)cc2N1 [Ziprasidone hydrochloride] | -0.27
14 | COCCc1ccc(OCC(O)CNC(C)C)cc1 (stereo not given) [Metoprolol tartrate] | 0.569
15 | O=P(O)(O)C(O)(Cc1cccnc1)P(=O)(O)O [Risedronic acid (Actonel)] | -0.269
16 | O=NN(CCCl)C(=O)NC1CCCCC1 [Lomustine (CeeNU)] | 0.724
17 | CC(C)(C)CC(C)(C)c1ccc(O)c(Cc2ccc(Cl)cc2Cl)c1 [Clofoctol] | -0.32
18 | CN(C)C(=N)NC(=N)N [Metformin hydrochloride (Glucophage)] | -1.27
19 | COc1ccc(C(CN(C)C)C2(O)CCCCC2)cc1 (stereo not given) [Venlafaxine] | -7.43
20 | O=NO [Sodium nitrite] | -0.606

Row | Structure (SMILES) | log2 surviving fraction
21 | C[N+]1(C)CCC(=C(c2ccccc2)c2ccccc2)CC1 [Diphemanil methylsulfate] | -0.316
22 | CC(=O)OCC[N+](C)(C)C [Acetylcholine chloride] | 0.281
23 | CCN(CC)C(=O)C1(c2ccccc2)CC1CN (stereo not given) [Milnacipran HCl] | -1.16
24 | O=C(O)c1cc(=O)c2ccccc2o1 [Chromocarb] | 0.4
25 | CC1=C(C(=O)O)N2C(=O)[C@@H](NC(=O)[C@H](N)c3ccccc3)[C@H]2SC1 [Cephalexin (Cefalexin)] | 0.593
26 | CN(C)CCC(c1ccc(Br)cc1)c1ccccn1 (stereo not given) [Brompheniramine] | 0.94
27 | COc1cc2nc(N(C)CCCNC(=O)C3CCCO3)nc(N)c2cc1OC (stereo not given) [Alfuzosin hydrochloride (Uroxatral)] | 0.177
28 | Clc1ccc(C(Cn2ccnc2)OCc2c(Cl)cccc2Cl)c(Cl)c1 (stereo not given) [Isoconazole nitrate (Travogen)] | -1.09
29 | Cc1cccc(C(C)c2c[nH]cn2)c1C (stereo not given) [Medetomidine HCl] | 1.12
30 | CC1(C)O[C@@H]2C[C@H]3[C@@H]4CCC5=CC(=O)C=C[C@]5(C)[C@H]4[C@@H](O)C[C@]3(C)[C@]2(C(=O)CO)O1 [Desonide] | -0.411
31 | Clc1ccc2c(c1)CCc1cccnc1C2=C1CCNCC1 [Desloratadine] | -5.24
32 | Cc1cccc([C@H](C)c2c[nH]cn2)c1C [Dexmedetomidine HCl (Precedex)] | 0.746
33 | O=C(O)Cc1ccccc1Nc1c(Cl)cccc1Cl [Diclofenac] | 0.308
34 | CC1(C)S[C@@H]2[C@H](NC(=O)[C@H](NC(=O)N3CCN(S(C)(=O)=O)C3=O)c3ccccc3)C(=O)N2[C@H]1C(=O)O [Mezlocillin Sodium] | 0.798
35 | CN1C2CCCC1CC(NC(=O)c1nn(C)c3ccccc13)C2 (stereo not given) [Granisetron HCl] | -0.0202
36 | CC(=O)OCC(=O)[C@@]12OC(C)(C)O[C@@H]1C[C@H]1[C@@H]3C[C@H](F)C4=CC(=O)C=C[C@]4(C)[C@@]3(F)[C@@H](O)C[C@@]12C [Fluocinonide (Vanos)] | -0.00579
37 | NNc1nncc2ccccc12 [Hydralazine hydrochloride] | 0.0876
38 | O=c1[nH]cnc2c1ncn2[C@H]1CC[C@@H](CO)O1 [Didanosine (Videx)] | -0.324
39 | C[N+](C)(C)CCCCCC[N+](C)(C)C [Hexamethonium bromide] | 0.0826
40 | CNCCc1ccccn1 [Betahistine 2HCl] | -0.734

Same assay, conditions: library drug concentration 10 µM; 7 days; carboplatin co-treatment 5 µM

Row | Structure (SMILES) | log2 surviving fraction
41 | CCCSc1nc(N[C@@H]2C[C@H]2c2ccc(F)c(F)c2)c2nnn([C@@H]3C[C@H](OCCO)[C@@H](O)[C@H]3O)c2n1 [Ticagrelor] | -3.64
42 | Cn1ccnc1S [Methimazole (Tapazole, Northyx)] | 0.0596
43 | C=C1CC[C@H](O)C/C1=C/C=C1\CCC[C@]2(C)[C@@H]([C@H](C)CCCC(C)C)CC[C@@H]12 [Vitamin D3 (Cholecalciferol)] | -0.746
44 | CCn1nc(C(=O)O)c(=O)c2cc3c(cc21)OCO3 [Cinoxacin] | 0.0234
45 | Nc1nc2[nH]cnc2c(=S)[nH]1 [Thioguanine] | -5.96
46 | O=C(O)c1cn(-c2ccc(F)cc2)c2cc(N3CCNCC3)c(F)cc2c1=O [Sarafloxacin HCl] | -9.66
47 | N#CC[C@H](C1CCCC1)n1cc(-c2ncnc3[nH]ccc23)cn1 | 0.327
48 | O=C(O)c1cc(=O)c2c(OCC(O)COc3cccc4oc(C(=O)O)cc(=O)c34)cccc2o1 [Disodium Cromoglycate] | 0.892
49 | Nc1ncnc2c1ncn2[C@@H]1O[C@H](CO)[C@@H](O)[C@H]1O [Adenosine (Adenocard)] | 0.206
50 | COC1=C(OC)C(=O)C(CCCCCCCCCCO)=C(C)C1=O [Idebenone] | -0.417
51 | N[C@@H]1CONC1=O [D-Cycloserine] | 0.667
52 | Cc1cc2c(s1)Nc1ccccc1N=C2N1CCN(C)CC1 [Olanzapine (Zyprexa)] | -0.136
53 | O=C1Cc2cc(CCN3CCN(c4nsc5ccccc45)CC3)c(Cl)cc2N1 [Ziprasidone hydrochloride] | 0.436
54 | COCCc1ccc(OCC(O)CNC(C)C)cc1 (stereo not given) [Metoprolol tartrate] | 0.394
55 | O=P(O)(O)C(O)(Cc1cccnc1)P(=O)(O)O [Risedronic acid (Actonel)] | 0.135
56 | O=NN(CCCl)C(=O)NC1CCCCC1 [Lomustine (CeeNU)] | 0.273
57 | CC(C)(C)CC(C)(C)c1ccc(O)c(Cc2ccc(Cl)cc2Cl)c1 [Clofoctol] | -1
58 | CN(C)C(=N)NC(=N)N [Metformin hydrochloride (Glucophage)] | 1.15
59 | COc1ccc(C(CN(C)C)C2(O)CCCCC2)cc1 (stereo not given) [Venlafaxine] | 0.587
60 | O=NO [Sodium nitrite] | -1.11

Row | Structure (SMILES) | log2 surviving fraction
61 | C[N+]1(C)CCC(=C(c2ccccc2)c2ccccc2)CC1 [Diphemanil methylsulfate] | 0.384
62 | CC(=O)OCC[N+](C)(C)C [Acetylcholine chloride] | 0.7
63 | CCN(CC)C(=O)C1(c2ccccc2)CC1CN (stereo not given) [Milnacipran HCl] | -0.765
64 | O=C(O)c1cc(=O)c2ccccc2o1 [Chromocarb] | 0.239
65 | CC1=C(C(=O)O)N2C(=O)[C@@H](NC(=O)[C@H](N)c3ccccc3)[C@H]2SC1 [Cephalexin (Cefalexin)] | 0.441
66 | CN(C)CCC(c1ccc(Br)cc1)c1ccccn1 (stereo not given) [Brompheniramine] | -0.0171
67 | COc1cc2nc(N(C)CCCNC(=O)C3CCCO3)nc(N)c2cc1OC (stereo not given) [Alfuzosin hydrochloride (Uroxatral)] | -0.308
68 | Clc1ccc(C(Cn2ccnc2)OCc2c(Cl)cccc2Cl)c(Cl)c1 (stereo not given) [Isoconazole nitrate (Travogen)] | -1.38
69 | Cc1cccc(C(C)c2c[nH]cn2)c1C (stereo not given) [Medetomidine HCl] | 0.0749
70 | CC1(C)O[C@@H]2C[C@H]3[C@@H]4CCC5=CC(=O)C=C[C@]5(C)[C@H]4[C@@H](O)C[C@]3(C)[C@]2(C(=O)CO)O1 [Desonide] | -0.163
71 | Clc1ccc2c(c1)CCc1cccnc1C2=C1CCNCC1 [Desloratadine] | -4.76
72 | Cc1cccc([C@H](C)c2c[nH]cn2)c1C [Dexmedetomidine HCl (Precedex)] | -0.161
73 | O=C(O)Cc1ccccc1Nc1c(Cl)cccc1Cl [Diclofenac] | 0.0945
74 | CC1(C)S[C@@H]2[C@H](NC(=O)[C@H](NC(=O)N3CCN(S(C)(=O)=O)C3=O)c3ccccc3)C(=O)N2[C@H]1C(=O)O [Mezlocillin Sodium] | -0.585
75 | CN1C2CCCC1CC(NC(=O)c1nn(C)c3ccccc13)C2 (stereo not given) [Granisetron HCl] | -0.376
76 | CC(=O)OCC(=O)[C@@]12OC(C)(C)O[C@@H]1C[C@H]1[C@@H]3C[C@H](F)C4=CC(=O)C=C[C@]4(C)[C@@]3(F)[C@@H](O)C[C@@]12C [Fluocinonide (Vanos)] | 0.9
77 | NNc1nncc2ccccc12 [Hydralazine hydrochloride] | 0.559
78 | O=c1[nH]cnc2c1ncn2[C@H]1CC[C@@H](CO)O1 [Didanosine (Videx)] | -0.145
79 | C[N+](C)(C)CCCCCC[N+](C)(C)C [Hexamethonium bromide] | -0.962
80 | CNCCc1ccccn1 [Betahistine 2HCl] | -0.59
